According to ChEMBL document CHEMBL4888484, “Replenishing the malaria drug discovery pipeline: Screening and hit evaluation of the MMV Hit Generation Library 1 (HGL1) against asexual blood stage Plasmodium falciparum ,using a nano luciferase reporter read-out” (2022):
Out of some 150,000 compounds screened, about 540 (0.36%) showed an effect of 50% or more. This is one part of the list.

Test system: Plasmodium falciparum
Experiment: Primary screen in NF54 nanoGlo assay, in single point, at 2uM, 72h; a lower Z score goes with more inhibition
Assay type: functional, Erythrocyte
Settings: timepoint 72 hour

SMILES	% Inhibition	Z score
COc1ccccc1-c1nnc2c3cc(C)ccc3nc(N3CCOCC3)n12	-4%	0.42
CCN(c1nc(COC)nc2scc(-c3ccccc3)c12)[C@H]1CCNC1=O	-6%	0.96
CC[C@H](C)NC(=O)Cc1csc(Cc2ccccn2)n1	-18%	2.59
CS(=O)(=O)Cc1cccc(CNc2nccn(C3CC3)c2=O)c1	-9%	0.87
O[C@@H](CNCCOc1ccccc1F)COc1ccc2ccccc2c1	32%	-2.68
Cc1ccc(C(C)NC(c2nc(-c3nnc[nH]3)no2)C(C)(C)C)o1 (centres undefined)	-2%	0.33
COc1cccc(C(=O)N2CCC(c3nc(-c4ccc5c(c4)OCO5)no3)CC2)c1OC	42%	-6.01
COc1ccc(CC(=O)N2CCc3nc(N4CCN(C)CC4)nc(N4CCCC4)c3C2)cc1	4%	-0.78
O=C(C[C@@H]1C=CCC1)Nc1cccc(N2C(=O)CCNC2=O)c1	-13%	1.15
Cc1cc(-c2csc(NC(=O)c3cccnc3Oc3cccnc3)n2)c(C)o1	1%	-0.13
C[C@@H](c1cccc(C(F)(F)F)c1)N(C(=O)c1cc(F)cc(F)c1)C1CC1	-9%	1.14
COc1cccc(Cn2ncc3ccc(C(=O)NCCN4CCC[C@H](C)C4)cc32)c1	-15%	1.28
CNC(=O)c1ccc(CNC(=O)C2=C(C)Oc3ccccc3C2)cc1	-15%	1.56
COc1ccccc1C(=O)NC1=NN2C(=NC(c3ccc(Cl)cc3)=C[C@H]2c2ccc(Cl)cc2)N1	97%	-10.07
CO[C@](C)(C(=O)N1CCC(Oc2cc(C)ccn2)CC1)C1CC1	-5%	0.71
CCCn1cnc2c1c(=O)n(C[C@H]1CCCO1)c(=O)n2-c1ccccc1	2%	-0.36
C[C@H](NCC1(c2c(F)cccc2F)CC1)c1cnn(C)c1	-3%	0.45
Cc1noc(NC(=O)N2CC(C)(C)[C@H]2c2ccncc2)n1	-7%	0.56
Cc1cc(Br)ccc1NC(=O)CN1CCC(=O)NC1=O	-11%	0.97
CC1CN(C(=O)Nc2ccc(Cl)c(Cl)c2)C(C)CC1=O (centres undefined)	-9%	1.02
Cc1ccc(F)c(N2CCC[C@H](NC(=O)CCn3cncn3)C2=O)c1	-11%	0.99

SMILES	% Inhibition	Z score
NC(=O)N1CCCc2ccc(NCc3cnn(CC(F)F)c3)cc21	-4%	0.75
CC[C@@H](C(=O)Nc1nonc1C)c1ccc(F)cc1	-1%	0.15
Cc1csc(=O)n1CCN[C@H]1CCCCC1(C)C	7%	-0.68
Cc1cc(C)c(S(=O)(=O)N2CCC[C@H]2C(=O)NC2CCCC2)c(C)c1	2%	-0.23
Cc1cc(OC2CN(C(=O)c3snnc3C)C2)n2ncnc2n1	18%	-2.4
Cc1noc(C)c1-c1ccc(S(=O)(=O)NCCc2ncnn2C)s1	-8%	1.46
COc1cccc(-n2ccnc2-c2ccccn2)n1	-3%	0.34
O=C1CC[C@H](C(=O)N2CCN(c3ccccc3Cl)CC2)CN1CCN1CCOCC1	-6%	0.8
O=C1N[C@@](CCCc2ccccc2)(C2CCNCC2)C(=O)N1CCc1ccccn1	-8%	1.48
NC(=O)CN(Cc1cccc2cccnc12)C1CCCC1	-31%	4
CNC(=O)C[C@H]1CCN(C(=O)C(C)(C)Nc2ccccc2)C1	-13%	1.67
O=C(c1conc1C(F)(F)F)N1CCC(c2nccs2)CC1	2%	-0.23
Cn1nc(CN(C(=O)NCc2ccc(F)cc2)C2CCCC2)cc1C1CC1	11%	-1.49
COCCC(=O)N1CC[C@@]2(C1)NCc1ccccc1N=C2NC(C)(C)C	-3%	0.49
Cn1cccc1C(=O)C(=O)N1C[C@@H]2CC[C@H]1CN(Cc1ccccn1)C2	11%	-1.03
Cc1ccc(C2=C[C@@H](c3ccc(C)cc3)n3nnnc3N2CC(=O)NCc2ccccc2)cc1	-4%	0.42
Cc1cc(CNC2CCC(F)C2)n(C)n1 (centres undefined)	-6%	0.73
O=C(NC[C@@H](CO)Cc1ccc(F)cc1)c1ccc2c(c1)CCOC2	-24%	2.53
Cc1cnn(C2CCCC2)c1NC(=O)N1CC[C@H]2CC[C@@H](C1)N2C	-14%	1.79
CCN(CC)CCOc1cc(C)ccc1C	-5%	0.85
CC(=O)c1ccc(NCCc2cn3c(n2)CCCC3)nc1	0%	0.01
